Results published in article PMC4242493.
The other results are listed elsewhere or left out. The list includes weakly bound sequences.

target: MaxL homodimer (UniProt P61244); assay: universal protein-binding microarray (PBM); settings: PBS-based mixture, 10 nM His-tagged protein dimer, 2% milk, 200 ng/uL BSA, 50 ng/uL salmon testes DNA, 0.02% TX-100; detection with Alexa 488 anti-His …; high values mean tight binding; most listed sequences are background and not binding sites; double strand, one strand shown
UniProt P61244, sequence (P61244 whole entry): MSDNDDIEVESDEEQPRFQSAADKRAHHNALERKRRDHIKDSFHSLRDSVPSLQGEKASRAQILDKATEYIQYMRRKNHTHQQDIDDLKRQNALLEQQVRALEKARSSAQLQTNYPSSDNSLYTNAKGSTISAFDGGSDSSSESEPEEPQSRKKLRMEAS

| Sequence | binding signal (normalized occupancy) |
| --- | --- |
| CGCTGGGA | 0.0693 |
| GCTGGATA | 0.0758 |
| AGACGTAT | 0.0799 |
| ACGCGACT | 0.0771 |
| CTTTATGC | 0.074 |
| ATCGGACG | 0.0722 |
| CACTTTAG | 0.0715 |
| CTGGGGTC | 0.0775 |
| TGGATAAA | 0.0753 |
| CTATATCC | 0.0854 |
| GAAAGGTA | 0.0727 |
| CTCATTAA | 0.0808 |
| GAGGTCCA | 0.0756 |
| ATCTGCAG | 0.0736 |
| ACGAAGAC | 0.0709 |
| ATGCTTAC | 0.0835 |
| CAAACGGA | 0.0706 |
| CGTTTCTA | 0.0801 |
| GGGCGTAC | 0.0687 |
| CCACGCTA | 0.0973 |
| TGACATAA | 0.0787 |
| AATGTGAC | 0.0908 |
| CGGGAGTA | 0.0722 |
| GGCTCCAA | 0.0662 |
| AGTGTGCC | 0.082 |

| Sequence | binding signal (normalized occupancy) |
| --- | --- |
| ACGTTGCG | 0.0766 |
| GCCCCTCC | 0.082 |
| AAAGCCGG | 0.0657 |
| CCCGCTAA | 0.0718 |
| CAGTGAAG | 0.0695 |
| GTTAGAAC | 0.0686 |
| ATCGCATG | 0.108 |
| CTCCCTCA | 0.073 |
| GTATAGAA | 0.0793 |
| CCGACCAC | 0.0807 |
| CTTGGCCC | 0.065 |
| CGGAATAA | 0.0777 |
| AGGTTCAC | 0.0748 |
| TCTACTCA | 0.0829 |
| AAAAAGGT | 0.0711 |
| AAATTGCG | 0.0738 |
| AAGTATTG | 0.0757 |
| AGCGACAT | 0.0759 |
| CGTCATAC | 0.0813 |
| AATTATCC | 0.0771 |
| TCTGTGCA | 0.0797 |
| GTATCGGA | 0.0757 |
| AATACTAT | 0.0791 |
| TCCAAACA | 0.0765 |
| CGTTCCAA | 0.0768 |

| Sequence | binding signal (normalized occupancy) |
| --- | --- |
| GTACCAAC | 0.0697 |
| AGCGTACG | 0.0746 |
| CCGTAAGA | 0.0746 |
| AGGCACGA | 0.0793 |
| ATCGTAAT | 0.0833 |
| AATGCAAC | 0.0776 |
| AGGTTTAA | 0.071 |
| GAACGGTA | 0.077 |
| GAACCCAA | 0.0696 |
| GGTAGAGA | 0.0754 |
| CCATTCCG | 0.0757 |
| AACGAAAT | 0.0746 |
| AGCATCCC | 0.077 |
| AGATGAAT | 0.0802 |
| CGTCTCAA | 0.0753 |
| CCTTTACC | 0.0766 |
| CGTCACAA | 0.0763 |
| TCGTCAAA | 0.0736 |
| AGTCATAC | 0.084 |
| CGCGCTCC | 0.0756 |
| CGTATGGC | 0.0827 |
| CTCCGTGC | 0.0756 |
| AGAAAGAC | 0.0712 |
| ATCGTGTG | 0.0889 |
| CCTCGCCG | 0.0725 |

| Sequence | binding signal (normalized occupancy) |
| --- | --- |
| CAAGGGCG | 0.0697 |
| AAGATAGA | 0.0761 |
| AAGTCTTG | 0.0729 |
| CTGACTAA | 0.0729 |
| CACCTTAC | 0.0694 |
| AATATTTA | 0.0834 |
| GTCGCCTA | 0.0701 |
| AAAGACGT | 0.074 |
| CACGGTGG | 0.0865 |
| TAACCATA | 0.08 |
| CATCACTC | 0.0774 |
| GAGGTTGC | 0.0712 |
| AATGAAGC | 0.0732 |
| AAATTCTA | 0.0726 |
| CAAGTCCC | 0.0697 |
| TACGAAGA | 0.0749 |
| ACCTTCGC | 0.0738 |
| AATGTCCG | 0.074 |
| ACTAATTC | 0.0767 |
| TTGACCAA | 0.0776 |
| GGTTGATA | 0.0767 |
| AATGTCCT | 0.0786 |
| TCTTTGAA | 0.0741 |
| ACGCTCAG | 0.0739 |
| AGCAACTA | 0.0716 |

| Sequence | binding signal (normalized occupancy) |
| --- | --- |
| AAATACAA | 0.076 |
| GGCCTCCC | 0.0653 |
| ACATAGCT | 0.0762 |
| TAGGGAGA | 0.0748 |
| CGTGGAAC | 0.083 |
| AGTTAATC | 0.0813 |
| GCAGATAA | 0.0745 |
| ATGACATC | 0.0827 |
| CTAGTTGC | 0.0695 |
| ATTGGAGC | 0.0728 |
| CACATGGC | 0.199 |
| AAGACTGG | 0.0734 |
| CCGTACCC | 0.0759 |
| TAGTCTCA | 0.0752 |
| CTCACTTC | 0.0734 |
| AGTAATCA | 0.0795 |
| CCTAGGAA | 0.0687 |
| CAGTCCAG | 0.0707 |
| ACCGAGTC | 0.0691 |
| CACAATTA | 0.0775 |
| AAGCGCGA | 0.0749 |
| TACAGTAA | 0.0811 |
| CCGCCTCG | 0.071 |
| ACGCAACC | 0.0796 |
| CTGTCAGA | 0.0705 |

| Sequence | binding signal (normalized occupancy) |
| --- | --- |
| ATGAAGTA | 0.0773 |
| CTATCGAG | 0.0743 |
| AGTGAACC | 0.0749 |
| AATTTCAA | 0.0737 |
| AATCAACC | 0.0816 |
| CGCTCACA | 0.076 |
| AAGAAACA | 0.0716 |
| AAATCCCT | 0.074 |
| GGAAAGCC | 0.0677 |
| TTCGGCAA | 0.0765 |
| GACTTGGA | 0.0749 |
| CGTGGGAA | 0.089 |
| TAAATATA | 0.0874 |
| AACTGCGC | 0.068 |
| ATTCAGTC | 0.076 |
| ATCGAAAG | 0.0707 |
| AGTTGCTC | 0.0675 |
| GTGGGACA | 0.0848 |
| GACAAGCC | 0.0728 |
| GACTGGTA | 0.0764 |
| AGTTCCGC | 0.0665 |
| GAGTCCGC | 0.0716 |
| ACCCAATA | 0.0747 |
| ATGACAAG | 0.081 |
| CCGAAGCG | 0.0676 |

| Sequence | binding signal (normalized occupancy) |
| --- | --- |
| AAGGGAAC | 0.0715 |
| CTACGTAC | 0.0835 |
| GGTTTTAC | 0.0786 |
| AACGAATC | 0.0776 |
| AGCCCCAC | 0.0786 |
| AAACGTGC | 0.101 |
| AAGCCTCG | 0.0772 |
| GGTCCTAA | 0.0732 |
| CCTGCCCG | 0.0714 |
| AAAGGCGA | 0.0712 |
| TAGGAGCA | 0.0779 |
| CACGCCGA | 0.0911 |
| TAAGGAGA | 0.0751 |
| ACGTCCGA | 0.0738 |
| TACTCCTA | 0.0748 |
| ATGTAGCA | 0.079 |
| CGCAACCG | 0.068 |
| AAACCGGC | 0.0689 |
| AGCATGGC | 0.102 |
| ACCTGCGT | 0.0757 |
| CTAAAGCA | 0.0753 |
| CCCCCAGC | 0.0752 |
| TAACAGTA | 0.0801 |
| CAGCGTCA | 0.0719 |
| GGGATCAA | 0.0808 |

| Sequence | binding signal (normalized occupancy) |
| --- | --- |
| ATCCTGAC | 0.0753 |
| GTCACTAA | 0.0757 |
| AAACGCAG | 0.0728 |
| GCTTTCTA | 0.0752 |
| AAAGATGC | 0.0755 |
| AAGGCTAT | 0.0752 |
| ACGCGGCC | 0.0827 |
| AAGATTAT | 0.0762 |
| CGATTTCC | 0.0663 |
| CTGCAGCA | 0.0755 |
| AACTACAG | 0.0771 |
| GCAGGAGA | 0.0739 |
| GAAGATAA | 0.0733 |
| GACCGACA | 0.075 |
| AATCCTTC | 0.0778 |
| ATCTATGA | 0.0846 |
| ATAATAGG | 0.0786 |
| CACTAATA | 0.0773 |
| ATGCAAAA | 0.0753 |
| GCTCCCCA | 0.0833 |
| ACTTCTGG | 0.0758 |
| CGTCAGGC | 0.0716 |
| CCTGGTTC | 0.0726 |
| ACCACGTC | 0.0945 |
| GCGCCCAA | 0.0712 |

| Sequence | binding signal (normalized occupancy) |
| --- | --- |
| GGGGAAAC | 0.073 |
| CAACGCTC | 0.0772 |
| AGGGTCAG | 0.0706 |
| CCGACAAA | 0.0718 |
| CTACGACA | 0.0772 |
| CAGTAGCC | 0.0674 |
| GTATGCGA | 0.0727 |
| AAACGGTT | 0.073 |
| GAAGCCAC | 0.0721 |
| CTGGGTTC | 0.0693 |
| GACAGCAC | 0.0804 |
| CTAAATCA | 0.0726 |
| GTTATAGA | 0.0851 |
| GAGCGCAA | 0.0672 |
| CTGCTGGC | 0.0733 |
| CCCGACCC | 0.0781 |
| CAAAGTGG | 0.0719 |
| CAGAATAC | 0.0753 |
| CTTTTGTA | 0.0739 |
